Out of some 310,000 compounds screened, about 2,200 (0.71%) showed an effect of 50% or more. The effect is printed as a negative number. Some of the results follow.
Molecular target: human ether-à-go-go-related gene (hERG) potassium channel (human, UniProt Q12809)
Assay: primary screen, population patch clamp on CHO cells stably expressing hERG

human ether-à-go-go-related gene (hERG) potassium channel, sequence (Q12809 whole entry, looked up): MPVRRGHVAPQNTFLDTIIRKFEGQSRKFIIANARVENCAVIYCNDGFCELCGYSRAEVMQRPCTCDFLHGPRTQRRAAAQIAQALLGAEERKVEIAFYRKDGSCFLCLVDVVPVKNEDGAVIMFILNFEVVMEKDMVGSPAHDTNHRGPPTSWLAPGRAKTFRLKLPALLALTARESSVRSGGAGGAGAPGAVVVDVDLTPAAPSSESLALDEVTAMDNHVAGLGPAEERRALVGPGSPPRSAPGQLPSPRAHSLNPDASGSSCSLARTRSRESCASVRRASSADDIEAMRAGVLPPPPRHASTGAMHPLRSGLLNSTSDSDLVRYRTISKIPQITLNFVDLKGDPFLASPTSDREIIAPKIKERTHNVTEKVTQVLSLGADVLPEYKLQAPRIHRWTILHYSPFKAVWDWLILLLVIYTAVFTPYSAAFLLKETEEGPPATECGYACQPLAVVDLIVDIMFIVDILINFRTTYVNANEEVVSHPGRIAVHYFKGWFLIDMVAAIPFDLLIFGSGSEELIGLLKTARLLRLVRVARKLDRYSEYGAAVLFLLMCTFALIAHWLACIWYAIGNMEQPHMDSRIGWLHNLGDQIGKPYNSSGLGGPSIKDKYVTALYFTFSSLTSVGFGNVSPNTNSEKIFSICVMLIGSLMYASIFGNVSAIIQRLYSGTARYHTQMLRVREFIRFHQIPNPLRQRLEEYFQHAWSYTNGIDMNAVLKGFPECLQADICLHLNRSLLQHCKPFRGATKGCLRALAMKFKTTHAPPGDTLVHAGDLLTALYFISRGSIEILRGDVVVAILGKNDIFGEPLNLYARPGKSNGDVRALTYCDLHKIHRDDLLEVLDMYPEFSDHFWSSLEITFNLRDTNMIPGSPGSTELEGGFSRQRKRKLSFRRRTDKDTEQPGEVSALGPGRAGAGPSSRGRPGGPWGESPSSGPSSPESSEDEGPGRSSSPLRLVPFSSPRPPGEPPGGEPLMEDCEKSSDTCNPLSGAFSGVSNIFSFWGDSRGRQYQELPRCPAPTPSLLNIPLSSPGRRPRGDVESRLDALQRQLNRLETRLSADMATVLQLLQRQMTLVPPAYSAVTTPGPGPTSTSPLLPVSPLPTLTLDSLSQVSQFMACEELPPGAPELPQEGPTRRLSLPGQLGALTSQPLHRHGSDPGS

| SMILES | hERG current change (%, negative = inhibition) at 1uM |
| --- | --- |
| COc1ccc(Oc2nccc(OC)c2C#N)cc1 | 3.18% |
| COc1ccc(C(=O)OCC(N)=O)cc1[N+](=O)[O-] | 3.78% |
| CC(C)[C@H](NC(=O)c1c(F)cccc1F)C(=O)Nc1cccc(Br)c1 | 9.63% |
| COc1ccc(-c2noc(CSc3nc(N)c(-c4ccccc4)c(=O)[nH]3)n2)cc1OC | 8.92% |
| C#CC[N+](C)(C)CCCCCCCC.[Br-] | 1.78% |
| Cc1nn(CC(=O)NCCc2cccs2)c(=O)c2cc3ccccc3n12 | 22.9% |
| COC(=O)c1ccc(NC(=O)CN2CCN(c3ccccc3)CC2)cc1 | -3.6% |
| Cc1cc(C)n(CC(=O)n2c(C)c(C)c3ccccc32)n1 | 14.4% |
| Cc1cccc(NS(=O)(=O)c2cccc3nsnc23)c1 | 0.0053% |
| CCC(Oc1ccccc1)C(=O)N1CCN(C(=O)C(CC)Oc2ccccc2)CC1 (stereo not drawn) | -4.43% |
| CCCc1ccc2oc(C(=O)NCCN3CCCC(C(N)=O)C3)c(C)c2c1 (stereo not drawn) | -8.03% |
| O=C(CCNC(=O)C1CCN(S(=O)(=O)c2ccccc2)CC1)NCc1ccc(Cl)cc1Cl | -12.1% |
| O=C(OCC(=O)c1cccs1)c1ccccc1 | 0.925% |
| O=c1cc(CO)occ1OCc1cccc(C(F)(F)F)c1 | 5.96% |
| Cc1ccnc(NC(=O)c2ccc(Cl)c(S(=O)(=O)N3CCCC3)c2)c1 | 15.5% |
| CCCCc1nc2ccccc2c(=O)n1NC(=O)c1c(O)c2ccccc2n(C)c1=O | 14.3% |
| COc1ccc(N2CCN(S(=O)(=O)CCNC(=O)COc3ccccc3C)CC2)cc1 | 5.85% |
| CCOc1ccc(/C=C2\SC(=S)N(NC(=O)c3ccncc3)C2=O)cc1OC | 13.1% |
| Cc1ccc(-n2c(SCC(=O)N3CCOCC3)nnc2-c2ccncc2)cc1C | 7.61% |
| Cc1ccc(S(=O)(=O)N(C)c2c(C)ccc(S(=O)(=O)Nc3ccncc3)c2C)cc1 | 7.32% |
| CC(/C=N/Nc1nncc(=O)[nH]1)=C\c1ccccc1 | 7.39% |
| CNC(=O)c1csc(-c2ccccc2)n1 | -4.25% |

| SMILES | hERG current change (%, negative = inhibition) at 1uM |
| --- | --- |
| Cc1ccc(C(=O)NCc2n[nH]c(=S)n2-c2ccccc2)cc1[N+](=O)[O-] | 12.2% |
| COc1cccc(-c2cc(C(=O)Nn3cnnc3)c3ccccc3n2)c1 | 9.72% |
| CC1CN=C(N(Cc2ccccc2)C(=O)Nc2ccccc2)S1 (stereo not drawn) | 22.4% |
| CCCCCOC(=O)CSc1nc2c(c(=O)[nH]c(=O)n2C)n1Cc1ccc(Cl)cc1 | 6.19% |
| Cn1c(N)c(C(=O)COC(=O)c2ccc([N+](=O)[O-])o2)c(=O)n(C)c1=O | 2.79% |
| CN1CCN(CC(=O)NN2CC(=O)N(c3ccc(F)cc3)CC2=O)CC1 | 5.9% |
| O=[N+]([O-])c1ccccc1S(=O)(=O)Nc1ccc(-c2ccc(N3CCCC3)nn2)cc1 | 17.7% |
| COc1ccccc1-n1c(CNC(=O)c2ccc(S(=O)(=O)N3CCCCC3)cc2)n[nH]c1=S | 18.3% |
| COc1ccc2cc(C3(C)NC(=O)N(CC(=O)NCC(F)(F)F)C3=O)ccc2c1 (stereo not drawn) | 12.1% |
| COc1ccc(NS(=O)(=O)c2ccc(-c3ccccn3)s2)cc1 | 8.18% |
| COc1ccc(C2CC(c3ccccc3)=NN2S(=O)(=O)c2ccccc2)cc1 (stereo not drawn) | 12.6% |
| C/C(N)=C(/C#N)C(=O)CSc1nnc(C)n1-c1ccccc1 | 12.2% |
| CCOC(=O)c1c(-c2ccc(Cl)cc2)c(C#N)c(=O)n(N)c1N | 1.46% |
| O=C(CCc1ccccc1)Nc1ccc(Cl)cn1 | 5.8% |
| COc1ccc(N/C=C/C(=O)c2ccc3c(c2)OCO3)cc1OC | 13.6% |
| C/C=C/C(=O)OCC(=O)Nc1cc(-c2cc(C)c(C)cc2C)nn1-c1ccccc1 | 10.2% |
| CC1CC(C)CN(S(=O)(=O)N2CCCC(C(=O)NC3CCCCC3C)C2)C1 (stereo not drawn) | 9.93% |
| Cc1cccc(NC(=S)NCCc2ccc(F)cc2)c1C | 11.9% |
| Cn1c(CC(=O)NCCO)c(Sc2ccccc2)c2ccccc21 | -2.03% |
| Cc1ccc(CSc2nnc(Cn3c(=O)sc4ccccc43)n2C)cc1 | -3.78% |
| Cc1[nH]c(C)c(S(=O)(=O)N2CCC(C)CC2)c1C(=O)N1CCCC1 | 2.54% |
| CCn1cc(C(=O)NCCc2ccccc2)c(=O)c2cc(S(=O)(=O)N3CCCC3)ccc21 | 15.7% |

| SMILES | hERG current change (%, negative = inhibition) at 1uM |
| --- | --- |
| COc1cc(-c2noc(CCCC(=O)Nc3ccc(C(N)=O)cc3)n2)cc(OC)c1OC | 8.92% |
| CCOC(=O)CSc1nnc(CSc2nc3sc4c(c3c(=O)[nH]2)CCC4)n1C | 8.77% |
| Cc1nnc(-c2ccc(Oc3ccc(C)c(C)c3)c([N+](=O)[O-])c2)o1 | -2.87% |
| CC(=O)N(C)c1ccc(N=Nc2c(C)[nH]n(-c3ccccc3)c2=O)cc1 | 8.98% |
| CC(=O)Nc1ccc(SC(C)C(=O)NC2CCCC2)cc1 (stereo not drawn) | 11% |
| Cc1nn(-c2ccccc2)c(C)c1C(=O)OCC(=O)Nc1ccc2c(c1)OCO2 | -13.6% |
| O=C(CCc1c[nH]c2ccccc12)Nc1ncccc1O | 10.9% |
| O=C(CCNS(=O)(=O)c1ccc(OC(F)(F)F)cc1)NCCc1c[nH]c2ccccc12 | 5.35% |
| COc1ccc(-c2csc(NC(=O)COC(=O)C3=COCCO3)n2)cc1 | 13.6% |
| Nc1ccc(NC(=S)Nc2ccccc2)cc1 | 10.1% |
| CCN(CC)S(=O)(=O)c1ccc2oc(SCC(=O)NC3CC3)nc2c1 | 6.39% |
| CCN(CC)C(C(=O)Nc1ccc2c(c1)OCO2)c1ccccc1 (stereo not drawn) | -2.71% |
| COc1cccc(CNC(=O)CC(NC(=O)c2ccccc2)c2ccccc2)c1 (stereo not drawn) | -3.32% |
| Cc1nc2ccc(NC(=S)N3CCCC3)cc2nc1C | 15.2% |
| COc1ccc(Cc2nc(-c3ccc(Br)cc3)no2)cc1 | 1.91% |
| Cc1nnc(SCC(=O)Nc2ccc(N(C)C)cc2)n(N)c1=O | 11.9% |
| CCN(CC)S(=O)(=O)c1ccc(N2CCOCC2)c(NS(=O)(=O)c2cc(C(C)(C)C)ccc2C)c1 | 6.68% |
| COCCN(Cc1ccccc1)C(=O)c1cc(S(=O)(=O)N2CCCCCC2)ccc1OC | 2.16% |
| CCOC(=O)c1cccc(NC(=O)Cn2cc3c(n2)CCC(C)C3)c1 (stereo not drawn) | 11.2% |
| Cc1nc2ccccc2nc1SCC(=O)N1CCC(C)CC1 | 7.4% |
| O=C(O)c1ccc(-c2cccc([N+](=O)[O-])c2)o1 | 11.9% |
| O=C(NCCO)C(=O)NCC1OCCCN1S(=O)(=O)c1cc(F)ccc1F (stereo not drawn) | 11.1% |

| SMILES | hERG current change (%, negative = inhibition) at 1uM |
| --- | --- |
| O=C(Oc1ccc([N+](=O)[O-])cc1)c1cc(-c2ccccc2)nc2ccccc12 | 13.1% |
| Cc1nn(Cc2ccccc2)c(C)c1NC(=O)CSc1nc2c(c(C(F)(F)F)n1)CCc1ccccc1-2 | 2.11% |
| Cc1ccnc2nc(C(=O)OCCOc3ccc(F)cc3)nn12 | -4.64% |
| COc1ccc(-n2c(O)c(C=NCCCn3ccnc3)c(=O)[nH]c2=O)cc1 | 11.7% |
| COc1ccc(S(=O)(=O)NCC(c2ccc(C)cc2)N2CCN(C)CC2)cc1 (stereo not drawn) | -20.1% |
| CCOC(=O)c1c(-c2ccc(C)o2)csc1NC(=O)CSc1nncs1 | -2.98% |
| CNC(=O)c1cccc(NC(=O)c2ccccc2OCc2ccccc2)c1 | 5.8% |
| CC(=O)Nc1ccc(NC=C(C#N)C#N)cc1 | 4.23% |
| Cc1ccc(OCCC(=O)OCC(=O)N2CCN(S(=O)(=O)c3ccc(Cl)cc3)CC2)cc1 | 2.59% |
| CCC(=O)N1c2ccccc2NC2=C(C(=O)CC(C)(C)C2)C1c1cccnc1 (stereo not drawn) | 11.4% |
| CC(=O)Nc1c(C(=O)C2CC2)oc2ccccc12 | -5.66% |
| O=C(OCC(=O)N(C1CCCCC1)C1CCCCC1)c1ccc(Cl)nc1 | 11.2% |
| CCN(CC)C1=CC(=[N+]2CCCC2)CC(C)(C)C1.[I-] | 3.4% |
| Cc1c(/C=N\NC(=O)c2ccc([N+](=O)[O-])cc2)cnn1C | 4.79% |
| CCn1c(SCC(=O)N=Nc2c(O)[nH]c3ccccc23)nnc1-c1ccc(C(C)(C)C)cc1 | -0.159% |
| COc1ccc(N2CCN(CC(=O)Nc3ccc(C)cc3)CC2)cc1 | 8.59% |
| Cc1ccccc1-n1cnnc1SCC(=O)N1CCN(c2ccccc2)CC1 | -22.3% |
| CCOC(=O)C1=C(C)NC2=C(C(=O)CCC2)C1c1cc(OC)ccc1OC (stereo not drawn) | -5% |
| CC(=O)N1c2ccc(S(=O)(=O)N3CCCCC3)cc2CC1C(=O)Nc1ccc(F)cc1C (stereo not drawn) | 13% |
| CCn1c(SCC(=O)N/N=C/c2cc(OC)c(O)c(OC)c2)nc2ccccc21 | -0.207% |
| c1cnc(N2CCN(Cc3ccc4c(c3)OCO4)CC2)cn1 | 2.96% |
